Data reported in PubChem BioAssay AID1030 (National Center for Advancing Translational Sciences (NCATS), 2008).
“And” between values parts separate entries of the source, which are not always exact repeats. Equal entries are not always repeated. Hit rate of the full screen: of about 220,000 compounds, about 16,000 (7.3%) were called active. The shares of active, inactive and inconclusive entries below differ from those in the screen. The call rests on the fitted dose curve; in most records, active means well fitted inhibition curve with a large enough effect (not every such curve was filed as active); inconclusive means small, poorly fitted or top-dose-only effect, or another doubt; inactive means no such curve, though single readings can be large or run the other way. Potencies of inconclusive entries are doubtful fits and often do not repeat. Some structures have more than one record in an assay (separate samples or runs), and their calls can disagree.

Molecular target: Aldehyde dehydrogenase 1A1 (Homo sapiens) (UniProt P00352)
Experiment: qHTS Assay for Inhibitors of Aldehyde Dehydrogenase 1 (ALDH1A1);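 on activity, negative = inhibition: plate controls were no enzyme wells and a reference inhibitor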
Details: Purified ALDH1A1, NADH fluorescence, propionaldehyde substrate; series mostly up to 75.3 µM; activity, negative = inhibition: at the top concentration
Potency means the concentration at half of the fitted maximal effect; tags describe the fitted curve by direction and shape.

UniProt P00352, sequence (P00352 whole entry, looked up): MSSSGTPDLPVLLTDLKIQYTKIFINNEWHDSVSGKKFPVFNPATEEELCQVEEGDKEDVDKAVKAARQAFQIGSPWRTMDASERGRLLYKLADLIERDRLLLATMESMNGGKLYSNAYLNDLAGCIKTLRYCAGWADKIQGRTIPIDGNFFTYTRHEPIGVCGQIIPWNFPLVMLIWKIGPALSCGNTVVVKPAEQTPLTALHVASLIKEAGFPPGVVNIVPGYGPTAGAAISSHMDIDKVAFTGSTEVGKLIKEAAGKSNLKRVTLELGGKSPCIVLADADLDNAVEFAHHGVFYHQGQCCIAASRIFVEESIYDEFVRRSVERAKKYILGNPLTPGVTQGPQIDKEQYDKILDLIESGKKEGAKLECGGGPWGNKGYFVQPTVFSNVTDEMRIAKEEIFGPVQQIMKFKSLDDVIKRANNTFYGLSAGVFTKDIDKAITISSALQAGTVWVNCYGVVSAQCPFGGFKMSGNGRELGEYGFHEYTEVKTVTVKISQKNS

Potency, inactive and 25.1 µM (active):
O=C(NCc1ccccc1)c1ccc(-c2ccccc2C(F)(F)F)o1

Potency, inconclusive:
CS(=O)(=O)Nc1cccc(-c2cc(NCc3cccs3)ncn2)c1 31.6 µM [inhibitor, single point]
COc1cc(C(=S)N2CCOCC2)ccc1OC(=O)c1cc([N+](=O)[O-])cc([N+](=O)[O-])c1 39.8 µM [inhibitor, single point]
Cc1ccccc1NC(=O)CCC(=O)N/N=C/c1c[nH]c2ccccc12 25.1 µM [inhibitor, partial curve]
O=C(N/N=C/c1ccc2cccnc2c1)c1ccco1 39.8 µM [inhibitor, single point]
Cc1ccc(-n2c([S-])c(C(=O)Nc3ccc(OC(F)F)cc3)[n+]3ccc(C(=O)NCCO)cc23)cc1C 39.8 µM [inhibitor, single point]
CC(=O)Cc1nsc(NC(=O)c2ccc(-c3cccc(Cl)c3)o2)n1 31.6 µM [inhibitor, partial curve]
O=C(Nc1cccc(C(F)(F)F)c1)c1ccc2nc(N3C(=O)CCC3=O)sc2c1 22.4 µM [inhibitor, partial curve]
CCOc1ncccc1C(=O)OCC(=O)NC1CC1 15.8 µM [inhibitor, partial curve, poor fit]
CCOC1(OCC)N=C(N)C2(C#N)C(c3cccc(OC)c3OC)C12C#N (stereo not given) 35.5 µM [inhibitor, single point]
Cc1ccccc1OCC(=O)Nc1nnc(-c2ccncc2)s1 14.1 µM [inhibitor, partial curve]
COc1ccccc1C1CCCN1Cc1nc(-c2ccc(C)s2)oc1C (stereo not given) 39.8 µM [inhibitor, single point]
O=C(c1nc2ccccc2s1)N1CCN(c2ccccn2)CC1 39.8 µM [inhibitor, single point]
O=C(NC(=S)N(CCO)Cc1ccccc1)c1ccc(S(=O)(=O)N2CCCC2)cc1 22.4 µM [inhibitor, single point]
C/C(=C\C(=O)c1ccc(Cl)s1)N(C)C 23.8 µM [inhibitor, single point]
CC(=O)NC(Cc1cc(C)ccc1C)C(=O)N1CCN(C(=O)Nc2ccc(C(C)=O)cc2)CC1 (stereo not given) 39.8 µM [inhibitor, single point]
CC1Cc2nc(SCC(=O)NCc3ccco3)n(Cc3ccccc3)c(=O)c2S1 (stereo not given) 20 µM [inhibitor, partial curve]
CC(=O)N1N=C2/C(=C/c3ccccc3)CCCC2C1c1ccccc1 (stereo not given) 31.6 µM [inhibitor, single point]
COC(=O)c1sc(NC(=O)C2CCCCC2C(=O)O)c(C(=O)OC)c1C (stereo not given) 44.7 µM [inhibitor, single point]
CC(=O)Nc1ccc(S(=O)(=O)N2CCN(CC(O)COc3ccc4ccccc4c3)CC2)cc1 (stereo not given) 39.8 µM [inhibitor, single point]
CC(C)NC(=S)NC(=O)c1ccc(-c2ccccc2)cc1 28.2 µM [inhibitor, single point]
CCOC(=O)C1=C(CSc2nc3ccccc3s2)NC(=O)NC1c1cccc([N+](=O)[O-])c1 (stereo not given) 39.8 µM [inhibitor, single point]
Cc1noc(C)c1-c1ccc2ncnc(N3CCC(C(=O)O)CC3)c2c1 12.6 µM [inhibitor, partial curve]
COc1ccc2c(c1)[nH]c1c(Cl)ncnc12 39.8 µM [inhibitor, single point]
Cc1onc(-c2ccccc2)c1-c1ccnn1C(=O)NC(C)C 10 µM [inhibitor, partial curve]
Cc1nc(-c2ccccn2)sc1C(=O)Nc1ccc(Cl)c(Cl)c1 39.8 µM [inhibitor, single point]
Cc1cnn(C(=S)NCc2ccc(Cl)cc2)c1 31.6 µM [inhibitor, single point]
Clc1ccccc1-c1nccc(-n2ccnc2)n1 22.4 µM [inhibitor, partial curve]
COc1ccc(-c2csc(NCc3ccco3)n2)cc1 39.8 µM [inhibitor, single point]
COc1cc2c(cc1OC)-c1cc(NC3CCCC3)nc(=O)n1CC2 25.1 µM [inhibitor, partial curve]
COCC(C)NC(=O)c1cc2cc(OC)ccc2[nH]1 (stereo not given) 28.2 µM [inhibitor, partial curve]
Nc1ccccc1C(=O)Nc1nccs1 28.2 µM [inhibitor, partial curve]
Cc1ccc(N/N=C/c2ccc(N3CCOCC3)cc2)cc1C 12.6 µM [inhibitor, partial curve]
CC(=C1C2C=CC1C1C(=O)NC(=O)C21)c1ccccc1 (stereo not given) 22.4 µM [inhibitor, partial curve]
CCOC(=O)C1CCCN(c2cc(=O)n(C3CCCCC3)c(=O)[nH]2)C1 (stereo not given) 39.8 µM [inhibitor, single point]
O=c1c2ccccc2nc2c3ccccc3c(NCc3ccccn3)nn12 2.82 µM [inhibitor, full curve]
COP(=O)(OC)c1nc(-c2cccc3ccccc23)oc1NCc1ccccc1 17.8 µM [inhibitor, partial curve]
O=C(COc1ccccc1)Nc1ccc2c(c1)C(=O)N(CC1CCCO1)C2=O (stereo not given) 28.2 µM [inhibitor, partial curve]
c1ccc2c3c(cc(N4CCOCC4)c2c1)OC1(N2CCOCC2)CCCCC1O3 (stereo not given) 31.6 µM [inhibitor, partial curve]
CCOC(=O)c1cccc(NC(=O)CNC(=O)C2CCCCC2)c1 44.7 µM [inhibitor, single point]
COc1cc2cc(CN(CCCN3CCOCC3)C(=O)Nc3ccccc3F)c(=O)[nH]c2cc1OC 39.8 µM [inhibitor, partial curve]

Potency, active:
O=C(O)Cn1cc(C(=S)N2CCOCC2)c2ccccc21 18.9 µM
CCOC(=O)c1ccc(N2C(=O)C3C(C2=O)C(C(=O)c2ccc(Cl)cc2)N2CCCC32)cc1 (stereo not given) 12.6 µM
COc1ccc(NC(=O)c2cc(C(C)C)on2)c(OC)c1 3.98 µM
CCC(=O)Nc1ccc(C(=O)CSc2nnc(-c3ccc(O)cc3)n2CC2CCCO2)cc1 (stereo not given) 25.1 µM
COc1ccnc(N2CCN(c3ccc(Cl)cc3)CC2)c1C#N 12.6 µM
O=C(CC1(O)C(=O)N(Cc2ccccc2)c2ccccc21)c1ccc2c(c1)OCO2 (stereo not given) 7.08 µM
CC1(C)NC(=O)N(CCCCOc2ccc3ccccc3c2Cl)C1=O 17.8 µM
COc1ccc(S(=O)(=O)NCC2CCCN(C(=O)c3ccccc3)C2)cc1 (stereo not given) 0.199 µM
CCOC(=O)Cn1nnnc1C(CC)N(Cc1cc2ccc(C)cc2[nH]c1=O)C1CCCC1 (stereo not given) 20 µM

activity, negative = inhibition, inactive:
CC(NC(=O)C(=O)N/N=C\c1ccc([N+](=O)[O-])cc1)c1ccccc1 (stereo not given) 5.61%
CCc1ccc(N/C(SC)=C(/C#N)C(N)=O)cc1 6.29%
Cc1ccc([C@@H](O)c2cnc(C)n2Cc2ccccc2)cc1 10.1% [at 13.5 µM]
COCCN1C(=O)C(=O)/C(=C(/O)c2ccc(OC(C)C)cc2)C1c1cccnc1 (stereo not given) 7.01%
COc1cccc(NC(=O)CCN2CCN(c3ccccc3F)CC2)c1 -0.688%
CCC(C)(C)C(=O)Nc1cccc(Cl)c1C 15.6%
Nc1c(Br)cc2oc(-c3ccccc3)nc2c1Br 6.83%
Cc1csc2nc(CNC(=O)CCC(=O)O)cn12 3.81%
Cc1cc(C)c(C)c(C(=O)CSc2nnc(-c3ccc4[nH]c(C)c(C)c4c3)o2)c1C -15%
OCC1O[C@@H](OC2C(O)C(CO)O[C@@]2(CO)O[C@@H]2OC(CO)C(O)C(O)C2O)C(O)C(O)C1O (stereo not given in full) 0.947%
NC(=O)C(=O)N/N=C/c1cccc(C(F)(F)F)c1 9.37%
CCOC(=O)C1=C(C)Nc2nc(SCC(=O)OC)nn2C1c1cc(F)cc(F)c1 (stereo not given) 5.43%
O=S(=O)(Cc1nc2ccccc2s1)c1ccccc1 -6%
Cc1csc(SCC(=O)NC(C)c2ccc(F)cc2)n1 (stereo not given) -10.4%
O=S(=O)(c1ccccc1)c1nc(NCc2cccnc2)sc1Cl -4.81%
O=C(COC(=O)C1(c2ccccc2F)CCCC1)NCc1cccs1 6.02%
COc1ccccc1N(C)S(=O)(=O)c1ccc(C(=O)OCC(=O)Nc2cc(C)on2)cc1 6.61%
CC[N+](CC)(CC=C(C)C)CC(=O)OC 8.21%
CCC(=O)Nc1ccc(C(=O)NCc2ccccn2)cc1 5.13%
O=C(O)c1cc(NS(=O)(=O)c2ccc(N3CCOCC3)c([N+](=O)[O-])c2)cc(C(=O)O)c1 7.24%
O=C(NC1CC1)C1CCN(C2CCN(C(=O)/C=C/c3ccc(F)cc3)CC2)CC1 -0.334%
COc1ccc(CN2CCN(c3ccccn3)CC2)c(OC)c1 0.34%
CN(C(=O)COC(=O)C1CCN(S(=O)(=O)c2cccs2)CC1)c1ccccc1 -6.11%
Cc1cccc(C2(c3cccc(C)c3)CC2C(=O)Nc2ccc([N+](=O)[O-])cc2O)c1 (stereo not given) -3.85%
Cc1ccc(C2=NNC(c3ccc(Cl)cc3)=Nc3ccccc32)o1 -8.34%
